Test results reported in PubChem BioAssay AID485294 (National Center for Advancing Translational Sciences (NCATS), 2010).
Out of some 370,000 compounds screened, about 150 (0.041%) were called active. The inconclusive results got no clear call from the source; some entries with a clear call stand among them for comparison. Calls follow the shape of the dose curve; as a rule, active = well fitted inhibition curve with a large enough effect; inconclusive = small, poorly fitted or top-dose-only effect; inactive = flat fitted curve, though single readings scatter. Potencies of inconclusive entries are left out as doubtful fits.
Also: nearly all actives have a fitted effect of over 25% in size.
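For activity change, negative = inhibition in this document: 0% = no-compound wells and -100% = no-enzyme wells.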
Potency is read from the fitted curve at half-maximal effect; tags tell the direction and shape of the fitted curve.

Each compound was assayed against Beta-lactamase (Escherichia coli (strain K12)) (UniProt P00811) (assay: qHTS Inhibitors of AmpC Beta-Lactamase (assay with detergent)). Settings: AmpC hydrolysis of nitrocefin, absorbance 480 nm, 0.01% Triton; activity change, negative = inhibition: at 114 µM (top of the series).
Chain of UniProt P00811 (P00811 whole entry, looked up): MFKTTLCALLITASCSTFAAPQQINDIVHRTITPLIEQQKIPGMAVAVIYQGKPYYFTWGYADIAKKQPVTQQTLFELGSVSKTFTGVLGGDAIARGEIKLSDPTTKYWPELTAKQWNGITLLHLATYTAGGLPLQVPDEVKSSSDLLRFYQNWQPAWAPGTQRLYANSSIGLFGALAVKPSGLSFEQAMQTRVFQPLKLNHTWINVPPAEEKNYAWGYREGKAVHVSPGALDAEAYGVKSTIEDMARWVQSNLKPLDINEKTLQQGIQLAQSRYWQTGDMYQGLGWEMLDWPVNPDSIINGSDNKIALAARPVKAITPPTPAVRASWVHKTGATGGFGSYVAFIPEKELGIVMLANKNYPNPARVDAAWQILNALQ
Procedure, shortened: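 AmpC (5.3 nM in the dispensed reagent) in 20 mM phosphate pH 7.0 with 0.01% (detergent screen) or 0.0001% Triton X-100 was preincubated with compounds for 15 min at room temperature. Nitrocefin was then added from an 800 uM solution, and hydrolysis was followed at 480 nm.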
With CCc1cccc(C)c1NC(=O)COC(=O)Cn1c(C)csc1=O the Potency was inconclusive [inhibitor, single point].
In the case of O=C(CSc1nnc(-c2ccncc2)n1Cc1ccco1)c1ccc(Cl)cc1, the “activity change, negative = inhibition” value is reported as inactive: -4.38%.
In the case of Nc1nc(CN2CCN(c3ccccn3)CC2)nc(Nc2ccc(F)cc2)n1, the “activity change, negative = inhibition” value is reported as inactive: -2.11%.
With O=C(NNC(=S)NC1CCCCC1)c1ccccc1Br the “activity change, negative = inhibition” value was inactive: 1.63%.
With COCC1CCN(Cc2nc(-c3ccc4c(c3)OCO4)no2)C1 (stereo not drawn) the “activity change, negative = inhibition” value was inactive: 5.32%.
For N#CCC(=O)Nc1sc2c(c1C(N)=O)CCCC2, the “activity change, negative = inhibition” value was inactive: -0.241%.
O=C(NCC1CCCN(C(=O)c2cscn2)C1)c1ccccc1Cl (stereo not drawn) was tested, and the “activity change, negative = inhibition” value was inactive: 3.76%.
In the case of COc1ccc(-c2cc3c(=O)n(CC(=O)NCCCc4ccccc4)ncn3n2)cc1, the Potency is reported as inconclusive [inhibitor, partial curve, poor fit].
With C=CCN1C(=O)N/C(=C/c2ccc(C)o2)C1=O the “activity change, negative = inhibition” value was inactive: -3.92%.
COc1cccc(C2C3CN(C)CC=C3C(C#N)=C(N)C2(C#N)C#N)c1OC (stereo not drawn) was tested, and the Potency was inconclusive [inhibitor, full curve, poor fit].
For C(=C\c1ccc2ccccc2n1)/c1ccccc1, the “activity change, negative = inhibition” value was inactive: -3.61%.
For O=C(c1ccccc1)N1CCCCCC1, the Potency was inconclusive [inhibitor, partial curve, poor fit].
With O=C(NCCNC(=O)c1ccco1)c1ccc(F)cc1 the “activity change, negative = inhibition” value was inactive: 0.284%.
With CCn1c(COc2ccc(C)cc2)nnc1SCc1nc2ccccc2[nH]1 the Potency was inconclusive [inhibitor, full curve, poor fit].
COc1ccc(C(=O)Nc2cccc(-c3nc4ncccc4o3)c2C)cc1OC was tested, and the “activity change, negative = inhibition” value was inactive: -2.37%.
Cc1c(NC(=O)C2Cc3ccccc3CN2C(=O)c2ccco2)c(=O)n(-c2ccccc2)n1C (stereo not drawn) was tested, and the “activity change, negative = inhibition” value was inactive: -10.8%.
In the case of COc1ccc(C(=O)N/N=C/c2cn[nH]c2-c2ccc(OC)cc2OC)cc1, the Potency is reported as inconclusive [inhibitor, full curve, poor fit].
In the case of COc1ccc(C(=O)NC(CO)c2nnc(SCc3ccc(Cl)c(Cl)c3)n2C)cc1 (stereo not drawn), the Potency is reported as inconclusive [inhibitor, full curve].
For CCC(=O)N1CCc2cc(S(=O)(=O)N3CCc4ccccc43)ccc21, the “activity change, negative = inhibition” value was inactive: -7.18%.
For Clc1ccccc1Nc1nnc(-c2ccncc2)s1, the “activity change, negative = inhibition” value was inactive: -0.714%.
In the case of O=C(O)CCN1C(=O)c2ccc(NC(=O)c3cccs3)cc2C1=O, the Potency is reported as inconclusive [inhibitor, full curve].
In the case of Cc1ccccc1OCCCN1C(=O)C(=O)c2cccc(C)c21, the Potency is reported as inconclusive [inhibitor, full curve, poor fit].
CCc1ccc(S(=O)(=O)Nc2ccc(-c3nc4cccnc4s3)cc2)s1 was tested, and the Potency was inconclusive [inhibitor, partial curve, poor fit].
With O=C(NCc1ccc(F)cc1)c1noc2c1CCCC2 the Potency was inconclusive [inhibitor, partial curve, poor fit].
Cc1cc2occ(CC(=O)NC3=NCCS3)c2cc1C(C)C was tested, and the Potency was inconclusive [inhibitor, full curve, poor fit].
For O=C(Nc1ccccc1)C(Cc1cccs1)c1nn[nH]n1 (stereo not drawn), the Potency was inconclusive [inhibitor, single point].
With Cc1cc(=O)oc2c3c(cc(OCC(=O)NCCN4CCOCC4)c12)OC(C)(C)CC3 the Potency was inconclusive [inhibitor, full curve, poor fit].
With Cc1ccc(CN(C(=O)Cn2nnc3ccccc32)C(C(=O)NCc2ccco2)c2ccc(C)o2)cc1 (stereo not drawn) the Potency was inconclusive [inhibitor, full curve, poor fit].
In the case of O=C(NCc1ccco1)c1ccc2ccccc2n1, the “activity change, negative = inhibition” value is reported as inactive: -2.08%.
CN(CC(=O)NCCC1=CCCCC1)S(=O)(=O)c1ccc2c(c1)CCC(=O)N2 was tested, and the Potency was inconclusive [inhibitor, full curve].
CC(C)(C)C1CCc2sc(-c3nnc(CCl)o3)cc2C1 (stereo not drawn) was tested, and the “activity change, negative = inhibition” value was inactive: -9.83%.
For O=C(CCC1N=C2c3ccccc3N=C(SCc3ccc(Cl)cc3)N2C1=O)N1CCN(c2ccccc2)CC1 (stereo not drawn), the “activity change, negative = inhibition” value was inactive: 18.4%.
In the case of COc1ccc(N2CCN(CCCNC(=O)Nc3ccccc3)CC2)cc1, the Potency is reported as inconclusive [inhibitor, full curve, poor fit].
COC(=O)CC(NC(=O)c1cccs1)c1ccc(OC)c(OC)c1 (stereo not drawn) was tested, and the Potency was inconclusive [inhibitor, full curve, poor fit].
For COc1ccccc1-c1ccc(SCC(=O)NCCc2ccccc2)nn1, the Potency was inconclusive [inhibitor, full curve].
For COc1ccc(OC)c(NC(=O)CN(Cc2ccc(F)cc2)C2CCCCC2)c1, the Potency was inconclusive [inhibitor, full curve, poor fit].
For O=C(Cn1cnc2ccccc21)N/N=C/c1ccccc1, the Potency was inconclusive [inhibitor, full curve, poor fit].
With Cc1nn(C)cc1CNC(=O)c1cnn2c1NC(c1ccc(Br)cc1)CC2C(F)(F)F (stereo not drawn) the Potency was inconclusive [inhibitor, full curve, poor fit].
O=C(/C=C/c1cccc(Cl)c1Cl)OCC(=O)N1CCOCC1 was tested, and the Potency was inconclusive [inhibitor, full curve, poor fit].
For O=C(CSc1nnc(-c2ccc(F)cc2)o1)N1CCCc2ccccc21, the “activity change, negative = inhibition” value was inactive: -1.14%.
For Cn1c(CN2CCN(c3ccc(Cl)cc3)CC2)nc2ccccc21, the Potency was inconclusive [inhibitor, full curve, poor fit].
With COc1cc(OC)c(C2CC(=O)N3CN(c4ccccc4)CSC3=C2C#N)cc1OC (stereo not drawn) the “activity change, negative = inhibition” value was inactive: -10.1%.
For N=c1sccn1CC(=O)Nc1cccc(S(N)(=O)=O)c1, the “activity change, negative = inhibition” value was inactive: -7.04%.
With COc1ccc(C(O)(C(=O)NNc2ccc(C)cc2)c2cccs2)cc1 (stereo not drawn) the Potency was inconclusive [inhibitor, single point].
For CCOC(=O)c1ccc(NC(=S)NC(=O)c2nn(CC)cc2Br)cc1, the Potency was inconclusive [inhibitor, full curve, poor fit].
For O=C(NCc1ccccc1)Nc1cccn(Cc2ccccc2Cl)c1=O, the “activity change, negative = inhibition” value was inactive: -5.23%.
In the case of CCOc1ccccc1NC(=O)Cn1[nH]c(=O)c2ccccc2c1=O, the Potency is reported as inconclusive [inhibitor, full curve, poor fit].
For O=C(C1COc2ccccc2O1)N1CCN(Cc2ccccc2)CC1 (stereo not drawn), the “activity change, negative = inhibition” value was inactive: -17.8%.
CCCCCC(C)NC(=O)c1ccoc1C (stereo not drawn) was tested, and the Potency was inconclusive [inhibitor, full curve, poor fit].
In the case of C/C=C(\C)C(=O)N[C@@H](c1ccccc1)[C@@H](O)C(=O)O[C@H]1C[C@@]2(O)[C@@H](OC(=O)c3ccccc3)C3[C@](C)(C(=O)[C@H](OC(C)=O)C(=C1C)C2(C)C)[C@H](O)C[C@H]1OC[C@@]31OC(C)=O (stereo partly drawn), the Potency is reported as inconclusive [inhibitor, full curve, poor fit].
CC(C)Oc1cc(O)c2c(=O)c(-c3ccc(O)cc3)coc2c1 was tested, and the Potency was inconclusive [inhibitor, full curve, poor fit].
COC(=O)c1ccccc1S(=O)(=O)N1CCC(C(=O)OCc2ccc([N+](=O)[O-])cc2)CC1 was tested, and the Potency was inconclusive [inhibitor, partial curve, poor fit].
With C=CCn1c(=O)c2ccccc2n2c(SCC(=O)N3CCCc4ccccc43)nnc12 the Potency was inconclusive [inhibitor, full curve].
For CC(=O)Nc1ccc(OS(=O)(=O)c2ccc([N+](=O)[O-])cc2)cc1, the Potency was inconclusive [inhibitor, single point].
With CC1Cc2nc(SCC(=O)N3CCOCC3)n(-c3ccccc3)c(=O)c2S1 (stereo not drawn) the Potency was inconclusive [inhibitor, full curve, poor fit].
For CCCn1c(N)c(N(CCOC)C(=O)c2ccc(-c3ccc(Cl)cc3)o2)c(=O)[nH]c1=O, the Potency was inconclusive [inhibitor, full curve, poor fit].
In the case of COc1ccc2nc(Nc3nc(-c4cc5ccccc5oc4=O)cs3)sc2c1, the Potency is reported as inconclusive [inhibitor, full curve, poor fit].
In the case of Cc1cc(C(=O)NCC(C)(C)N2CCOCC2)c(C)o1, the Potency is reported as inconclusive [inhibitor, single point].
For c1ccc2c(c1)OCC(c1csc3ncnc(N4CCCCC4)c13)O2 (stereo not drawn), the Potency was inconclusive [inhibitor, full curve, poor fit].
In the case of O=C(COc1cccc2ccccc12)NNC(=O)C1CCCO1 (stereo not drawn), the Potency is reported as inconclusive [inhibitor, single point].
In the case of NC(=O)c1oc2ccccc2c1NC(=O)C1CCCCC1, the Potency is reported as inconclusive [inhibitor, partial curve].
For O=C(c1ccc(Cl)cc1Cl)N1CCc2ccccc21, the “activity change, negative = inhibition” value was inactive: -20.5%.
COc1ccc(NC(=O)c2oc3ccccc3c2NC(=O)COc2ccc(C(C)C)cc2)c(OC)c1 was tested, and the “activity change, negative = inhibition” value was inactive: 3.13%.
In the case of CN=C(SCc1ccccc1)c1c(O)n(C)c(=O)n(C)c1=O, the Potency is reported as inconclusive [inhibitor, full curve, poor fit].
With CCOC(=O)CSC1=C(C#N)C(=O)NC2(CCCCC2)S1 the Potency was inconclusive [inhibitor, single point].
With Cc1ccc(C)c(N2CCN(CCCNC(=O)Cn3cccc3C(=O)c3ccccc3)CC2)c1 the Potency was inconclusive [inhibitor, full curve, poor fit].
COc1ccccc1CN1CCN(Cc2nc(-c3ccc(C)cc3)oc2C)CC1 was tested, and the Potency was inconclusive [inhibitor, partial curve, poor fit].
With COc1ccc(CNC(=O)COc2cc(=O)n(C)c3ccccc23)cc1 the “activity change, negative = inhibition” value was inactive: -12.2%.
